Our source for the binding signal values is article PMC12136788.

Changes are numbered by the printed parent chain. The list shows a part of the results.

T1: UNK ZnF1-3 (human, UniProt Q9C0B0 31-174)
T1 sequence: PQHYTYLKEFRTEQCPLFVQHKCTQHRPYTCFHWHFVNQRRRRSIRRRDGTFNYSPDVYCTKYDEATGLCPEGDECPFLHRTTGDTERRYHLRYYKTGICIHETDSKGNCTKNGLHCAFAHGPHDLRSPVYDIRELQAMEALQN

B1: chr4:99997526:99997527:-_ENSG00000197894_ENST00000296412|hu_hu|FALSE|FALSE (ssRNA)
RNA: GGGAGUUCUACAGUCCGACGAUCGGAAUAGUCCACUCCUCCAUCGGUCAUCUCAAUGAGCACUUCCUGGAUGGGUUUACUAAAAUCCUGAGGGUUAAUACAUUCAGUGGCUCCAAACUCUUUGGCCCUUGCAAAUUUAUCUUUCAACAGAGGAUUGAGCAUCA
B2: chr17:1756424:1756425:+_ENSG00000132383_ENST00000254719|hu_mus|FALSE|FALSE (ssRNA)
RNA: GGGAGUUCUACAGUCCGACGAUCUAGGGCACUGGAUUCCCAAUCUUUAAUCCAACGUCUUCAGCAGAUUUCAUAACUUCCAAGUCCAUCAAAACAACUACUUUCCUGCCGUCUUUCAGGGUGUUGACGAUGAACUUGUGGACCCAACAGAGGAUUGAGCAUCA
B3: chr2:35971668:35971669:-_ENSMUSG00000026889_ENSMUST00000028251|mus_hu|FALSE|FALSE (ssRNA)
RNA: GGGAGUUCUACAGUCCGACGAUCGAAUCAGUACAAAUAAUAAACAGUGCUUUAAAUACAAAUAAAUAGCUCUGGUUUCUAAAGGAAACAACUCUAUAUAUAAUUCUAAGUUUUUUCUAAGUUCCUAUUAAAAAUAGAAGACUACAACAGAGGAUUGAGCAUCA
B4: chr7:54825262:54825263:-_ENSG00000132432_ENST00000352861|hu_hu|hu_hu_hu_mus_False|28_38 (ssRNA)
RNA: GGGAGUUCUACAGUCCGACGAUCCUGCCGGCUGGGCUCCACAAACUGCAUUACCUGAUCCAUGUUUGUUGGAUGGCGGAUUGAGAGCGUAGAGACAACGUAGCACUGGAGCUUGCUAGCCCAACGGAACCGGAAGCUGGCAACCAACAGAGGAUUGAGCAUCA
B5: chrX:148369326:148369327:+_ENSMUSG00000025261_ENSMUST00000112622|mus_mus|FALSE|FALSE (ssRNA)
RNA: GGGAGUUCUACAGUCCGACGAUCCUUGUCUCGCAUUGAAUCAUUAGCUGUGCACAUCAACACAUUCCAAGCACAAAUUAAGAAAUGCAAACAGAACAAAAAAAUAUAUAUAUAUAUAAUUUUUCCCCUAUCCAAAGGUUUCAACAACAGAGGAUUGAGCAUCA
B6: chr2:198351390:198351391:-_ENSG00000144381_ENST00000345042|hu_hu|hu_hu_hu_mus_False|18_108 (ssRNA)
RNA: GGGAGUUCUACAGUCCGACGAUCUCAUUCUCACUCUCCACAGAAAGGCUGCUUCUGAACUCUCAUGUGGUGACACAGCGCUACAGUCCUGAUGCUCACAGAACAGUAGAGAUGCCUCCUCAGUGAUAGUUGAAAGCAGGACACCAACAGAGGAUUGAGCAUCA
B7: chr14:23058014:23058015:-_ENSG00000129562_ENST00000250498|hu_hu|motif|central (ssRNA)
RNA: GGGAGUUCUACAGUCCGACGAUCAGCAGGUACGCGUCCAGCAACUUCAGACGCUGCGGAGUGGAGCUCAAGUACUCUUCGGAGAACCGCGAAAUGACAGACACUACCGACGCCGACAUAACUGCACGCAAGGUACUCCAGUCCCAACAGAGGAUUGAGCAUCA
B8: 195163662_195163782_85_5pUTR_ENSG00000114331_ENST00000326793|human|control|control (ssRNA)
RNA: GGGAGUUCUACAGUCCGACGAUCCACGGCCGCGACUAGCGUUGCGCGGAGCUGCGAAGGGCGCCUCGCCCGCUGGUCAUAGCAGCCGCGAAGACGGCGACGACUAGUCAGGCCCCAGUCCCGCCCCUCUUCCUCCCGCCCCAACAACAGAGGAUUGAGCAUCA
B9: chr12:41043843:41043844:-_ENSMUSG00000055917_ENSMUST00000069637|mus_mus|FALSE|FALSE (ssRNA)
RNA: GGGAGUUCUACAGUCCGACGAUCUUUGGAUUUGAACUUUACAUGGCAACUGUAGCACUUGCAUUGGUGAACUUGCCUUCUAAUGAAAUUGACCAGCUUCACUUGCUGAUAGAAAUUUAAUCCAAGCUCUGACUUUAUUCUGAGCAACAGAGGAUUGAGCAUCA
B10: chr6:114270382:114270383:-_ENSG00000196591_ENST00000368632|hu_mus|FALSE|FALSE (ssRNA)
RNA: GGGAGUUCUACAGUCCGACGAUCCAUCUCCAUCACUUUUGAGAUGAUAGGCUUAAAAAUUUGUCCAUAUGAUUCAUCAUCUAUACCAUCUCUCAUGGGAAAAUUGACAGCAUAGUAUUUUCCCUUUCCAGCACCAAUAUCCCUCAACAGAGGAUUGAGCAUCA
B11: chr16:53361121:53361122:+_ENSG00000177200_ENST00000398510|hu_mus|motif|central (ssRNA)
RNA: GGGAGUUCUACAGUCCGACGAUCGAGGCCUGAAACAAGGGGUAGACCACAAGGCAACACCAGCUAUAACUCUCUCAGGAACGGCCAACACGUACUGGGAUAGCCUUUCAGCUGCAGCUUGAGUAAGUGGGACUGCAUUGACUUCAACAGAGGAUUGAGCAUCA
B12: chr4:76721835:76721836:+_ENSG00000138768_ENST00000264904|hu_mus|hu_hu_hu_mus_True|28_98 (ssRNA)
RNA: GGGAGUUCUACAGUCCGACGAUCGUUUGGCUGGGGUUCUGAGAUGCCUCUGGAAUAUAACUCAUGUUUGCUAAUAAAUCCUAGUUUCUCUAUGAAAUUCUCUUUGCAAUCCUCUUCCUCUAUUAGUUGCUUUAGUUUCUCUUUCAACAGAGGAUUGAGCAUCA
B13: chr1:46159212:46159213:+_ENSG00000159596_ENST00000372025|hu_mus|hu_hu_hu_mus_True|68_68 (ssRNA)
RNA: GGGAGUUCUACAGUCCGACGAUCUCUGAUCCCUCCCAAGAAAGCUAGGAAACCGGCUCCAUAAGCCAUCUGAGUAAAAGCUAGGACGGGGAUAUAAGACUUUGUUAUUACCAUGAGAAGUGGGGGAGCAGUAAAGGGGAUUAACAACAGAGGAUUGAGCAUCA
B14: chr5:122941739:122941740:-_ENSMUSG00000029467_ENSMUST00000031423|mus_hu|motif|central (ssRNA)
RNA: GGGAGUUCUACAGUCCGACGAUCUCUUUCCUGCCAUACACCCACAAUUGCAUUGGCUACUAAUAUGAGUAAAAUUACAAAAGGUUCGGCAAAGGCUGUAAUUGUUUCUUCACCUUCUUCAAACCAAGCCAAAACAAAAGAUAUCAACAGAGGAUUGAGCAUCA
B15: chr1:130485734:130485735:-_ENSMUSG00000045382_ENSMUST00000052172|mus_mus|mus_mus_mus_hu_False|58_88 (ssRNA)
RNA: GGGAGUUCUACAGUCCGACGAUCGAUGAAGGAGUCGAUGCUGAUCCCCACAUAAUAAGGCAGCCAACAGGCGAAGAAAGCUAGGAUGAGGAUGACUGUGGUCUUGAGGGCCUUGCGCUUCUGGUGGCCCUUGGAGUGUGACAGCAACAGAGGAUUGAGCAUCA
B16: chr22:19452774:19452775:-_ENSG00000070010_ENST00000399523|hu_hu|hu_hu_hu_mus_False|28_48 (ssRNA)
RNA: GGGAGUUCUACAGUCCGACGAUCCUUCUCAUUGUAGUUGAUAGCAAUCACAUCUCCAGUCGUCAGACAGGCGAAGUUUCUCAAUGCGUUUUCUAAUACCGCUUUAGGGUUGGUGAUAUCCAGGAAGUCUGGGCUCUGAGGCUGCAACAGAGGAUUGAGCAUCA
B17: chr2:48026839:48026840:+_ENSG00000116062_ENST00000540021|hu_hu|hu_hu_hu_mus_False|8_8 (ssRNA)
RNA: GGGAGUUCUACAGUCCGACGAUCAUAGUGAGCCACUAGCGUCCUAAAUCUGGAACAGUGGCGGUCAUCCGAAAACUGGCCGAUGAAAAACUUGCCCAGUGAAGUGUCCACAAAGCAAACACCAUACGCACGAGUAUGACCAGACAACAGAGGAUUGAGCAUCA
B18: chr3:179287964:179287965:+_ENSG00000136518_ENST00000429709|hu_hu|hu_hu_hu_mus_True|48_68 (ssRNA)
RNA: GGGAGUUCUACAGUCCGACGAUCCUUGAGUGGUGAGAUGGCCUCCAUGUUCUCCCUGGGCACGCGGAGAGCAUUAGUGUCUAUGUAGUAGGUGGGACCGCCCUGCUUGCCUUUGUCACCAUCAAUCUCCAUCAUUGUACUUCCCAACAGAGGAUUGAGCAUCA
B19: chr7:30890253:30890254:+_ENSMUSG00000049421_ENSMUST00000108200|mus_mus|motif|central (ssRNA)
RNA: GGGAGUUCUACAGUCCGACGAUCUUCUUUCUGGCUAAAAGCCUUACCACACUCAUUACACUUAAAAGGUUUCUUCCCACGGUGGAUAUUCUGGUGUUUAAUGAGGUAUUGCUUCUGGCUGAAGGCUCUUCCACACUGACUACACAACAGAGGAUUGAGCAUCA
B20: 108466383_108469091_1100_3pUTR_ENSG00000108018_ENST00000263054|human|control|control (ssRNA)
RNA: GGGAGUUCUACAGUCCGACGAUCUGAUGUCAGCUGAACAAACACAUAAUGAUCCUGAACAAUCAAAGAGUCUGGGUCAAUGUAGCCUGGAAAAGGCUGAUUCCUGUUGGCCUCUGUACAGUUCUGCAUUCGGCAAGUUAGAUACAACAGAGGAUUGAGCAUCA
B21: chr1:46159212:46159213:+_ENSG00000159596_ENST00000372025|hu_mus|hu_hu_hu_mus_True|48_108 (ssRNA)
RNA: B13 RNA with U33A, A75G, G90A
B22: 16164087_16164207_2571_3pUTR_ENSG00000169762_ENST00000405303|human|control|control (ssRNA)
RNA: GGGAGUUCUACAGUCCGACGAUCAUAAUUUAUGAAGUAAUUAGUUUUAAAGCAAAAUCAGUUAAGUAUACCUUAAAGUUAACACUGCUCUGCUUCCUUGGUGUAAAAAGUGCCCUUUUGUAAGGAAAUUUGUUUUAUCCACCACAACAGAGGAUUGAGCAUCA

This assay concerns the target T1, UNK ZnF1-3. Put plainly: nsRBNS (natural sequence RNA bind-n-seq); RBNS binding buffer (assumed for nsRBNS): 25 mM Tris pH 7.5, 150 mM KCl, 3 mM MgCl2, 0.01% Triton X-100, 500 ug/ml BSA, 20 U/ml SUPERase-In, 4 C; UNK is unkempt and MSI1 is Musashi-1; names of the RNAs are library labels; protein concentration not given here; high values mean tight binding.
The molecule B1 registered a binding signal of 0.707 enrichment R.
As for B2, the figure is 0.497 enrichment R.
As for B3, the figure is 1.9 enrichment R; as for B4, 1.37 enrichment R; as for B5, 0.743 enrichment R.
As for B6, the figure is 1.02 enrichment R; as for B7, 1.65 enrichment R.
B8 returned a binding signal of 0.616 enrichment R.
As for B9, the figure is 0.883 enrichment R.
As for B10, the figure is 1.6 enrichment R; as for B11, 1.12 enrichment R.
As for B12, the figure is 0.503 enrichment R; as for B13, 1.25 enrichment R.
As to B14, the binding signal came to 1.22 enrichment R.
As for B15, the figure is 1.37 enrichment R.
Take B16: the binding signal was 0.753 enrichment R.
As for B17, the figure is 0.992 enrichment R; as for B18, 0.688 enrichment R; as for B19, 0.687 enrichment R.
As for B20, the figure is 0.94 enrichment R; as for B21, 1.36 enrichment R.
As for B22, the figure is 1.09 enrichment R.
